# Results: patent publication US5985822A, “Inhibition of glial cell proliferation with N-CAM homophilic peptides” (The Scripps Research Institute, priority 1995, dated 1999)
# Values joined by “and” are separate entries in the source; they are usually repeats but may differ in a detail not shown here. Equal values may be shown once. At least one peptide structure holds a part that was inferred or is arguable (an end, a ring closure or a residue). Ends that are not written are not given here.
# Legend:
# [1] = test system: dividing astrocytes in cerebral cortex, hippocampus or striatum; test: In vivo labeling index of dividing astrocytes (BrdU with GFAP or S100) after stab lesion with infusion; design: species or system rat; conditions: for Labeling Index (Experimental): N-CAM 250 μg/ml, 3rd Ig domain 5 mg/ml, N-CAM peptide 1 mg/ml, 3 μl infused; for Labeling Index (Experimental) / Labeling Index (Control): n=3; for Labeling Index (Control): contralateral infusion of random peptide 1 mg/ml, 3 days after lesion
# Procedure: Samples were injected into the brains of rats (Wistar Albino, Male, 200-250 g, Charles River, anesthetized with xylazine (12 mg/kg) and ketamine (90 mg/kg) through a 26 gauge needle. The needle point was placed at the stereotactic coordinates of either the hippocampus, cerebral cortex or striatum (Table 2). Bilateral injections of 3-4 μl were made using an Hamilton syringe. Each animal received an infusion of either the purified rat N-CAM (250 μg/ml), the third Ig domain of chicken N-CAM (5 mg/ml), or the rat N-CAM peptide KHIFSDDSSE (SEQ ID NO 2) (1 mg/ml) in PBS into one hemisphere; the other hemisphere was infused with the random peptide (SFSISDEDHK (SEQ ID NO 9), 1 mg/ml in PBS) as a control. The experimental and control sides varied between animals and choice of side had no significant effect on the results. Three μl of each protein or peptide was infused at a rate of 0.2 μl per minute after which the needle was left in place for 5 minutes and then removed. In one experiment, a group of animals received basic fibroblast growth factor (bFGF, 450 ng) in the solutions which contained either the random peptide or the purified N-CAM.
# The samples were either purified N-CAM in phosphate buffered saline (PBS), N-CAM peptide KHIFSDDSSE (SEQ. ID. NO. 2) (1 mg/ml or 10 mg/ml) in PBS, or the corresponding random peptide SFSISDEDHK (SEQ ID NO 9) (1 mg/ml) (see Example 3 above). The injection rate was about 0.2 μl/min; the needle was left in place for 5 minute after the injection. Each animal received either the purified N-CAM or the N-CAM peptide injected into one side of the brain and the corresponding structure on the other side was injected with the random peptide as a control.
# Three animals were examined for each treatment and brain region described. Animals were maintained for a postinjection survival time of about 70-72 hours. During that time they received five injections of bromodeoxyuridine (Brdu) dissolved in 0.007 N NaOH (120 mg/kg, intraperitoneal). Two of the three animals that had been injected in the hippocampus received Brdu approximately 18, 28, 42, 52, and 70 hours after the stereotactic surgery. All of the animals that had been injected in the cerebral cortex or the striatum and one animal injected in the hippocampus received Brdu approximately 2, 18, 28, 42, and 52 hours after the stereotactic surgery.
# Animals were perfused under anesthesia with about 30 ml of ice-cold PBS followed by about 400 ml of ice-cold […] in PBS. The brains were then removed and postfixed for 2-16 hours in 4% paraformaldehyde in PBS then placed in succeeding solutions of ascending concentrations of sucrose (12%, 18%, and 24%). The brains were then sectioned on a cryostat at a thickness of 10 μm.
# Non-specific binding on the sections was blocked by incubation in 8% fetal bovine serum (FBS) in PBS. Sections were then incubated in polyclonal antibody to glial fibrillary acidic protein (GFAP; 1:100 dilution, Dako) in 0.2% Triton X-100, 8% FBS/PBS for 24 - 48 hr at 4° C. The sections were processed using a biotinylated secondary antibody and the Vectastain ABC kit (Vector), and stained with a diaminobenzidine peroxidase substrate kit from Vector or Pierce. The sections were then incubated for 6 minutes in a solution of Proteinase K (Dako), rinsed and incubated in 2 N HCL for 20 minutes at 37° C. The sections were rinsed and blocked in 8% FBS/PBS and incubated in a monoclonal antibody to Brdu (1:40 dilution, Dako), 0.01% Triton X-100, 8% fetal bovine serum/PBS for 24-48 hr at 4° C. The sections were processed using a biotinlyated secondary antibody and the Vectastain ABC kit (Vector), and stained with a VIP peroxidase substrate kit from Vector giving the Brdu positive cells a red color. The sections were then rinsed in PBS and coverslipped in glycerol/PBS.
# GFAP positive cells and cells positive for both GFAP and BRDU were counted under a Zeiss Axiophot light microscope. […]
# [2] = test system: rat forebrain astrocytes in primary culture; test: Astrocyte proliferation assay ([3H]-thymidine incorporation normalized to [35S]-methionine); format: cell-based; conditions: peptide 0.1 mg/ml in SFM, 7×10^4 cells/cm^2
# Procedure: Primary cultures of astrocytes were prepared from the forebrains of 4-5 day old neonatal rats. After decapitation and removal of the forebrains from the skull, the meninges were carefully peeled off, and forebrain tissue was triturated in sterile phosphate buffered saline (PBS) using firepolished pipettes. The resulting suspension of tissue fragments was incubated in Hank's balanced salt solution (Gibco BRL) with 2.5 mg/ml trypsin, 1 mM EDTA and 0.1 mg/ml DNase (Boehringer) at 37° C. for 15 minutes. […] The pellet was resuspended in serum free medium (SFM) consisting of Dulbecco's Modified Eagle Medium (D-MEM), 2 mM L-glutamine, 50 U/ml penicillin G sodium and 50 μg/ml streptomycin sulfate (all from Gibco BRL) supplemented by 10% (vol/vol) fetal bovine serum (FBS). The cells were transferred to a standard 100 mm tissue culture dish (Falcon) and incubated at 37° C. for 1-2 hours. After mild shaking, the supernatant containing unattached cells was transferred to a 100 mm collagen-coated dish. […] Cell samples were checked regularly for the expression of GFAP, a marker for astrocytes.
# After cell attachment, the culture medium was exchanged for SFM. In antisense experiments, oligonucleotides were added at the same time (T=0). […] After another 12 hours (at T=60), [^3 H]-thymidine (New England Nuclear, 20 Ci/mmol) was added (0.38 μM, 10 μCi/ml). Following an additional 12 hours (T=72), the wells were drained, counts precipitated by ice-cold […] trichloroacetic acid, and the plates left to dry. Counts were solubilized overnight by adding 100 μl 1 N KOH to each well, neutralized with 100 μl 1 N HCl, transferred to liquid scintillation vials and counted in 3 ml of Beckman Ready Safe liquid scintillation cocktail on a Packard 1600 TR counter. […] In this paper, proliferation is expressed as [^3 H]-thymidine incorporation normalized to [35]-methionine incorporation and calculated as [^3 H] dpm/ [35] dpm.
# chick N-CAM = chick N-CAM (Gallus gallus, UniProt P13590); conditions: peptide in solution; cited from earlier work
# retinal cells = conditions: peptide in solution; cited from earlier work
# chick N-CAM, sequence (P13590 20-1091): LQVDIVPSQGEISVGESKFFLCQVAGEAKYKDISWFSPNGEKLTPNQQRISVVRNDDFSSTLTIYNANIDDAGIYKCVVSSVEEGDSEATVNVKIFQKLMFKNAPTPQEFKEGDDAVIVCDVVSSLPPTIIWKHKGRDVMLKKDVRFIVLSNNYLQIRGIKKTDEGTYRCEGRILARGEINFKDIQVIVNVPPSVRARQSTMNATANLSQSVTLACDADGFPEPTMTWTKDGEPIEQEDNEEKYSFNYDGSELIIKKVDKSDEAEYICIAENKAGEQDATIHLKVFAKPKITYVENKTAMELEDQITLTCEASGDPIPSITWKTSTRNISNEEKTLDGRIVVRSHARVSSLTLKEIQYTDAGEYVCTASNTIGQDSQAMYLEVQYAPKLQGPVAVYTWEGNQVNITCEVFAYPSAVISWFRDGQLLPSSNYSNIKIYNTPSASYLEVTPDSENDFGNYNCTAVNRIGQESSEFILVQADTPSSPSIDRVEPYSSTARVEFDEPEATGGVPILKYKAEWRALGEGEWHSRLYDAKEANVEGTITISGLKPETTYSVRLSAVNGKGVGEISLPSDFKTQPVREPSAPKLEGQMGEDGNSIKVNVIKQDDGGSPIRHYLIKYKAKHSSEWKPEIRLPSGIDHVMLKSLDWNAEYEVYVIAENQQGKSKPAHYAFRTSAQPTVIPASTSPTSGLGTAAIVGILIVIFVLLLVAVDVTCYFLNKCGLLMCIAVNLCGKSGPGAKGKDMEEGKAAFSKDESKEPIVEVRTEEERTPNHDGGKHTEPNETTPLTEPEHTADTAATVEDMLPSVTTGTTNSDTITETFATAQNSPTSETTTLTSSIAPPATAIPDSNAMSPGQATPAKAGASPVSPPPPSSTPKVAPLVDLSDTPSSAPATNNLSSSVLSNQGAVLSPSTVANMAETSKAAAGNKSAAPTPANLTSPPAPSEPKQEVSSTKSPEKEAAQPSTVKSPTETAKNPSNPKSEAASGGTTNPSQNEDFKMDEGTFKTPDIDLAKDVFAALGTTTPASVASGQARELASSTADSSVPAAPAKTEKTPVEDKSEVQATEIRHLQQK
sequence,measurement,setting,value
KHIFSDDSSE [KHIFSDDSSE],"Percent Difference of labeling index, experimental vs control",[1]; cerebral cortex,-30.4 ± 7.8%
same,Labeling Index (Experimental),[1]; cerebral cortex,13.2 ± 3.8%
same,"Percent Difference of labeling index, experimental vs control",[1]; hippocampus,-27.1 ± 2.9%
same,Labeling Index (Experimental),[1]; hippocampus,14.5 ± 2.0%
same,"Percent Difference of labeling index, experimental vs control",[1]; striatum,-14.5 ± 2.3%
same,Labeling Index (Experimental),[1]; striatum,16.3 ± 0.9%
SFSISDEDHK [SFSISDEDHK],effect of synthetic peptide on astrocyte proliferation,[2],did not affect proliferation
same,Labeling Index (Control),[1]; cerebral cortex,21.3 ± 1.2% and 24.9 ± 2.9% and 18.9 ± 4.8%
same,Labeling Index (Control),[1]; hippocampus,19.6 ± 3.3% and 18.4 ± 2.6% and 19.9 ± 2.1%
same,Labeling Index (Control),[1]; striatum,26.1 ± 0.7% and 24.3 ± 5.2% and 19.1 ± 0.9%
KYSFNYDGSE [KYSFNYDGSE],effect of synthetic peptide on astrocyte proliferation,[2],inhibited proliferation
same,effect on N-CAM-homophilic binding,chick N-CAM,disrupted N-CAM-homophilic binding
same,effect on N-CAM-dependent neurite outgrowth,retinal cells,inhibited N-CAM-dependent neurite outgrowth
GFNSSYEDYK [GFNSSYEDYK],effect of synthetic peptide on astrocyte proliferation,[2],had no effect
